Results: paper PMC6919601, “Identification of Plasmodium dipeptidyl aminopeptidase allosteric inhibitors by high throughput screening” (PLoS ONE, 2019)
Several values for one entry are separate records, joined by “and”; a condition that tells them apart may be missing. Identical values can stand only once. About 230 (0.21%) of roughly 110,000 compounds showed an effect of 50% or more. The list shows a part of the results.

Each compound was assayed against DPAP1 (Plasmodium falciparum, UniProt Q8IIJ9) (assay: primary screen, percent inhibition; read by cleavage of a fluorogenic dipeptide substrate; higher = more effect of the substance).
Design: species or system P. falciparum D10 trophozoite lysates; single well
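Also: 30 min substrate incubation versus DMSO and 10 µM JCP410 controls.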

DPAP1, sequence (Q8IIJ9 whole entry, looked up): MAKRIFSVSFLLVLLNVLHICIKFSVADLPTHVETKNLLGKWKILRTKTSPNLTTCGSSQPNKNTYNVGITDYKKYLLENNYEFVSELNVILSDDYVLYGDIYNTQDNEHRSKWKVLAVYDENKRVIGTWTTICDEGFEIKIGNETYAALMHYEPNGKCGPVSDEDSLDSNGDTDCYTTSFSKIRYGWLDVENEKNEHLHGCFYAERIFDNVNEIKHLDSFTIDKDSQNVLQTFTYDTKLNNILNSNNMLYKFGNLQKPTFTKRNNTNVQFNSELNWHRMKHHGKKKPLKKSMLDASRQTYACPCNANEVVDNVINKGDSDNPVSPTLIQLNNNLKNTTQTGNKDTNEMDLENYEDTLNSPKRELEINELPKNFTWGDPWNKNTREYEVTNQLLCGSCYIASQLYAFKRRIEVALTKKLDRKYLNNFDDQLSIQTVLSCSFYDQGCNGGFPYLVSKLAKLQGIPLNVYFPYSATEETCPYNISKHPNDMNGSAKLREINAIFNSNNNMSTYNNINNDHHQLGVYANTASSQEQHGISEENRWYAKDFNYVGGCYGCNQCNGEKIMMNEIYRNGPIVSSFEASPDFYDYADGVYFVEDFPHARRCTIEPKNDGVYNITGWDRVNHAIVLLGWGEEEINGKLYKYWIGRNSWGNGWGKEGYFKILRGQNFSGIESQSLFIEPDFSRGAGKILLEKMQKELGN

Compound | % Inhibition @ 10 uM
CCOc1ccc(-c2cn(-c3ccccc3F)c(S)n2)cc1 | 56.2%
COC(=O)c1ccc(NC(=O)c2cc(OC)c(OC)c(OC)c2)cc1 | -6.82%
CC1CCN(S(=O)(=O)N2CCC(C(=O)NCCN3CCCCCC3)CC2)CC1 | 0.387%
O=C(CC(c1cccs1)N1Cc2ccccc2C1=O)N1CCN(C(=O)c2ccco2)CC1 (centres unmarked) | -0.943%
c1ccc2[nH]c(SCCN3CCCC3)nc2c1 | -5.92%
CCC1(c2ccccc2)C(=O)N(C)C(=O)N(C)C1=O | 4.41%
CCn1cc(CCC(=O)NCc2cc(Br)ccc2OC)c2ccccc21 | -1.11%
COc1ccc(NC(=O)COc2nc(N(C)C)nc(N(C)C)n2)cc1 | 0.365%
CN1CCN(C2=Cc3ccccc3Sc3ccccc32)CC1 | 0.843%
CS(=O)(=O)c1nc(S(=O)(=O)c2ccc(Cl)cc2)c(N2CCC(C(N)=O)CC2)s1 | 0.942%
CN1C(=O)C(O)(CC(=O)c2cccc(Br)c2)c2ccccc21 (centres unmarked) | 1.72%
CCC(Sc1nnc2c(n1)[nH]c1ccccc12)C(=O)Nc1nc2ccccc2s1 (centres unmarked) | -6.6%
C=CCN1C(=O)N/C(=C/c2ccc(OC)c(OCC)c2)C1=O | -3.41%
COC(=O)c1cnn2c1NCN(CCN1CCc3ccccc3C1)C2 | -2.88%
Fc1ccc(NC2CN3CCC2CC3)cc1Cl (centres unmarked) | 1.42%
CC(NC(=O)c1cc(O)nc2ccc(Br)cc12)c1ccc2c(c1)OCCO2 (centres unmarked) | 4.81%
c1cc(CNC2C3CC4CC(C3)CC2C4)ccn1 (centres unmarked) | 8%
CC(NC(=O)C1CCN(c2nnc(N3CCCC3=O)s2)CC1)c1ccccc1 (centres unmarked) | -4.68%
C#CC(C)(CC)NC(=O)CSc1nnnn1-c1ccc(Cl)cc1 (centres unmarked) | -0.403%
CC(=O)N1CC[C@@]2(O)CCCC[C@@H]2[C@H]1c1cccc(Br)c1 | 4.26%
CC(=O)c1ccc2c(c1)Nc1ccccc1S2 | -0.872%
O=C(CN1CCN(Cc2cccc(Cl)c2)C1=O)N1CCCC1 | -2.41%
CCn1c2ccccc2c2cc(CN3CCCCCC3)ccc21 | 1.48%
CC1CC(C)CN(C(=O)COc2ccc(Cl)cc2)C1 (centres unmarked) | 0.727%
CCc1ccc(N2C(=O)CC(N(CCc3ccccc3Cl)C(C)=O)C2=O)cc1 (centres unmarked) | -2.83%
O=C(O)CSc1cccc(C(=O)Nc2ccc(Br)cc2)c1 | 3.25%

Compound | % Inhibition @ 10 uM
Cn1c2ccccc2c2cnn(CC(=O)NCCCN3CCc4ccccc4C3)c(=O)c21 | -0.439%
CC(=O)c1ccc(NC(=O)c2ccc(C)c(Br)c2)cc1 | -1.61%
CCc1nn(CC(=O)NCCN2CCN(C)CC2)c(=O)c2cc3sccc3n12 | 1.59%
O=C(c1cc(F)c(F)cc1Cl)N1CCCCC1 | 0.00178%
Cc1cc(-c2[nH]nc3c2C(c2ccc(F)cc2)C(C#N)=C(N)O3)c(C)s1 (centres unmarked) | -4.65%
COc1ccc(-c2cc(C(=O)N(C)Cc3ccccc3)no2)cc1OC | 13.3%
Oc1ccccc2c3c(nc1-2)CCCC3 | 0.27%
Cc1nc2cc(NC(=O)c3ccc(NS(=O)(=O)c4cccc(Cl)c4)cc3)ccc2s1 | 1.84%
Cc1cc(C(=O)NC(C)c2ccc3c(c2)OCO3)cs1 (centres unmarked) | 0.493%
COc1ccccc1CNC(=O)C1CCCN(S(=O)(=O)N2CCCCCC2)C1 (centres unmarked) | 4.36%
CN(C)c1ccc(C=C2C(=O)OC(C)(C)OC2=O)cc1 | 4.34%
O=C(c1cc2nc(-c3ccco3)cc(C(F)(F)F)n2n1)N1CCN(C23CC4CC(CC(C4)C2)C3)CC1 | -0.834%
Cc1ccc(C2CC(c3cccc(Cl)c3)n3ncnc3N2)cc1C (centres unmarked) | 0.219%
Fc1ccc(-c2csc(-c3cccnc3)n2)cc1 | -2.09%
C=C(C)CN(CC)C1CCN(CCc2ccccc2)CC1 | 6.26%
Nc1nc(O)c2nc(Br)n(C3OC(CO)C(O)C3O)c2n1 (centres unmarked) | -1.29%
Fc1ccc(F)c(CN2CCN(c3cccc(Cl)c3)CC2)c1 | -3.5%
CCCOc1ccccc1N1C(=O)C2CC(C)=C(C)CC2C1=O (centres unmarked) | 0.634%
COc1ccc(-c2[nH]c(-c3ccc(C)cc3)nc2SCC(=O)NCc2ccco2)cc1OC | -1.58%
CCC(C)(C)C1CCc2sc3ncnc(N4CCOCC4)c3c2C1 (centres unmarked) | 2.56%
CCC(=O)N1c2ccccc2N=C2CC(C)(C)CC(O)=C2C1c1ccc2c(c1)OCO2 (centres unmarked) | 1.01%
CC1CC(C)CN(C(=O)C2CCN(C(=O)c3cnn(-c4ccccc4)c3-n3cccc3)CC2)C1 (centres unmarked) | -7.1%
COCCCNC(=O)CCCc1nnc2n(C)c(=O)c3sccc3n12 | -5.95%
Cc1ccc(C(=O)NC2CCCCCC2)cc1[N+](=O)[O-] | -1.22%
CC1CCN(c2ccc3nnc(CCC(=O)NC(C)c4ccc5c(c4)OCCO5)n3n2)CC1 (centres unmarked) | -2.55%
O=C(CCC(=O)Nc1ccccc1Cl)Nc1ccccc1Cl | -3.23%

Compound | % Inhibition @ 10 uM
OCCCn1c(-c2ccccc2)cn2c3ccccc3nc12 | 5%
CCCNC(=O)c1cc2n(n1)C(C(F)(F)F)CC(c1ccc(Br)cc1)N2 (centres unmarked) | -0.67%
Cn1c(=S)[nH]c2c(c1=O)C1(CCCCC1)Cc1ccccc1-2 | -6.09% and 0.756%
Cc1cccc(OCC(=O)Nc2ccc(S(=O)(=O)Nc3onc(C)c3C)cc2)c1 | -2.3%
O=C1CSC(C23CC4CC(CC(C4)C2)C3)N1 (centres unmarked) | -1.33%
FC(F)(F)c1ccccc1CN1CCOCC1 | -0.0494%
Cc1ccc(NCC(=O)c2ccc([N+](=O)[O-])cc2)cc1 | -2.03%
CCN(CC)CCOC(=O)C1(c2ccccc2)CCCC1 | 3.44%
CCc1ccc(/C(O)=C/C=N/c2ccc3c(c2)OCO3)cc1 | 2.46%
CC(C)(C)NC(=O)CCSc1ccc(Cl)cc1 | -1.33%
CCN(CC)CCNC(=O)c1c(O)nc2c(c1O)CCCC2 | 2.8%
COc1cc(OC)c(C2CC(=O)NC3=C2C(=O)CCC3)cc1OC (centres unmarked) | -8.2%
Cc1ccnc(NC(=O)CCCCC(=O)O)c1 | -0.467%
CCOc1ccccc1C(=O)Nc1ccc(F)cc1 | -1.07%
CN(C)CCC(=O)c1ccc(Br)cc1 | 0.968%
C#Cc1cccc(NC(=O)COc2ccccc2OC)c1 | -2.74%
CC(C)Oc1ccccc1C=C1C(=O)NC(=O)NC1=O | 1.13%
CC(C)CCNC(=O)CCn1nc(-c2ccc(Cl)cc2)ccc1=O | -3.58%
COc1ccccc1-c1nc2s/c(=C\c3ccc(C)o3)c(=O)n2n1 | -4.85%
C=CCn1c(SCC(=O)NCc2cccnc2)nc2sc3c(c2c1=O)CCCC3 | -7.02%
CN(C)CCN/C=C1\C(=O)NC(=O)N(CCC2=CCCCC2)C1=O | 8.6%
CCN(CC)CCNS(=O)(=O)c1cc(Br)cnc1N | -1.06%
COc1ccc(Cc2nnc(NC(=O)CSCc3ccccc3)s2)cc1 | 0.565%
COCCN1C(=S)NC2CC1(C)Oc1ccc(Cl)cc12 (centres unmarked) | -17.3%
Nc1nc(NCc2ccccc2)nc(-c2cc(Cl)ccc2O)n1 | 5.49%
COc1cc(/C=C(\C#N)c2nn(CCO)c(N)c2C#N)cc(Br)c1OCc1ccccc1 | 7.62%

Compound | % Inhibition @ 10 uM
CCOC(=O)C(/C=N/c1ncccn1)=C(/O)OCC | 0.487%
Cc1cc(C)c(C#N)c(SCC(=O)Nc2ccc(Br)cc2)n1 | 7.11%
O=C(Nc1cccnc1)c1ccc(S(=O)(=O)c2ccc(Cl)cc2)cc1 | 4.95%
Cc1cc(OCC(=O)Nc2ccccc2C(=O)O)cc(C)c1Cl | 1.57%
CNC(=O)c1nnn(Cc2ccccc2)c1NC(C)=O | 4.32%
COc1ccc(Br)cc1CNC(=O)Cn1nc(C)n2c(cc3occc32)c1=O | -1.6%
CCNc1nc(ON=C(C)C)nc(N(C)C)n1 | 2.95%
Cc1cccc(-c2noc(CCC(=O)Nc3cccnc3)n2)c1 | -2.21%
Cc1ccc(-c2cc(C(=O)N3CCN(C(=O)c4ccco4)CC3)no2)cc1 | 3.54%
CCN1CCC(Nc2ccc3c[nH]nc3c2)CC1 | -0.0953%
O=C(COc1ccc2c(=O)c(-c3ccc(Cl)cc3)coc2c1)N1CCOCC1 | 1.05%
COc1ccc(C2=NS(=O)(=O)N(C)C(C(=O)NCC(C)C)=C2)cc1 | -2.84%
COc1ccc2nc(C)cc(Nc3ccc(C(=O)O)cc3)c2c1 | 1.93%
CCN(CC)CCCNC(=O)Cn1ncc2c(=O)oc3ccc(C)cc3c21 | -1.7%
CCc1ccc(CN2CCN(c3cccc(C(F)(F)F)c3)CC2)cc1 | -0.127%
N#CCc1ccc(NC(=O)CN(c2ccc(F)cc2)S(=O)(=O)c2ccc3c(c2)OCCO3)cc1 | 8.95%
Cc1cc(C)c(-c2c(O)n3c4[n+](c2=O)CCCN4CCC3)c(C)c1 | -1.24%
Cc1cc(/C=C2/NC(=O)N(c3ccccc3)C2=O)c(C)n1C | 1.86%
CCOc1ccc(-n2c(CSc3ncccn3)nnc2SCC(N)=O)cc1 | -4.94%
COc1ccc2c(=O)cc(C(F)(F)F)oc2c1 | -3.32%
Cc1c(Cl)ccc2c1NC(C(=O)O)C1CC=CC21 (centres unmarked) | 21.6%
Cn1cc(C2NC(=O)c3c(sc4c3CCCC4)N2)c2ccccc21 (centres unmarked) | 1.24%
NC(=O)C1CCN(C(=O)c2ccc3nc(N4CCCCC4)sc3c2)CC1 | -2.37%
COc1ccccc1/C=C1\C(=O)C(=O)c2ccccc21 | 2.76%
COc1ccc2c(c1)C1=NN(C(C)=O)C(c3ccccc3)C1CC2 (centres unmarked) | -2.6%
O=C1N=C(N2CCN(Cc3ccccc3)CC2)S/C1=C\c1cccc(O)c1 | 51%
